For experiment [1], the target named is T1, human UHRF1 PHD finger, residues 299–366 (human) (UniProt Q96T88).
T1 sequence: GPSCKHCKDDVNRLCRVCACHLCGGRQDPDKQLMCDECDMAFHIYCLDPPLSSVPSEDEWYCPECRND
The experiment in a line: ITC; Microcal PEAQ-ITC, 293 K, 10 mM HEPES pH 7.5, 150 mM NaCl, 0.25 mM TCEP; one-site model; at least three independent titrations; both purified.

The target of experiment [2] is T1, human UHRF1 PHD finger, residues 299–366 (human). The experiment in a line: condition: only with excess H3_(1-37W) peptide (hPHD:hDPPA3_(81-118):H3 = 1:2:8); NMR titration; competition: 1H-15N HSQC at 293 K of 60 µM [15N]-hPHD with hDPPA3_(81-118) and/or H3_(1-37W) peptide at molar ratios hPHD:hDPPA3:H3 of 1:0:0, 1:2:0, 1:0:2, 1:2:2 and 1:2:8; both purified.
Experiment [3] shares this target. The experiment is described as follows: NMR titration; 1H-15N HSQC of 30 µM [15N]-hPHD titrated with non-labelled hDPPA3_(81-118) at 0, 15, 30 and 60 µM; both purified.

Results are given in words; binding and its absence hold for the method and conditions named. Some binding calls cover weakened binding; strength is not graded here.

The values below come from paper PMC11187062.

For the molecule SRRGVRTALSVQREKMARLRYMLLGGVRTHERRPTNKE (domain or fragment, UniProt Q6W0C5 81-118) [hDPPA3_(81-118) L88A], in experiment [1], the binding result is “binds weakly”.

As for SRRGVAALLSVQREKMARLRYMLLGGVRTHERRPTNKE (domain or fragment, UniProt Q6W0C5 81-118) [hDPPA3_(81-118) R86A/T87A], the binding entry in experiment [1] is listed as “no binding (tested: >85.0 µM)”.

In the case of SRRGVRTLLSVQREKMARLRYMLLGGVRTHERRPTNKE (domain or fragment) [human DPPA3, residues 81–118 (recombinant)], the figures for the binding entry in experiment [2] and in experiment [3] were “no binding” and “binds weakly”, respectively.

Consider SRRGARTLLSVQREKMARLRYMLLGGVRTHERRPTNKE (domain or fragment, UniProt Q6W0C5 81-118) [hDPPA3_(81-118) V85A], for which, in experiment [1], the binding result is “binds weakly”.
